# Reference: the RNAGym collection of RNA variant scans (doi:10.7554/elife.90254)
# The source gives no read counts; variants with many changes may rest on few reads.
# B1: LINE1-mini (parent)
# chain: GGCAGAGCUCAACACAGCGUGGCAAAGUGGCUGUGGCUAGACUGCC
# Variants of: B1
# Assay: self-cleavage, relative activity (ratio to wild type); higher = more cleavage; in vitro, sequencing; the parent is a self-cleaving ribozyme
row,Variant,self-cleavage
1,G19C A41U C46U,0.47
2,C8A G29U G30A,1.47
3,C3A U20C A39G C45A,0.06
4,G1A G5C C37U,0.07
5,A4G G36A A41G,0.11
6,G5A A11C A16U G35C C37A U38A,0
7,C8G U20C A26U,0.02
8,G2U C31A C46G,0.01
9,U32C G33A G44C,0.11
10,A6G A14C U34C A39C,0.06
11,A4C C8A U43C,0.1
12,G19C U28C G44C,0.14
13,G5C C10G C23A C31U G35C,0
14,U32G G35A G40C,0.19
15,G2U A11C C13U,0
16,C15A G22A A24C G36C U43G,0
17,C42U U43G C45A,0.04
18,C3U C8A G19U U34C,0.33
19,A4U G5C G22A G27C,0.03
20,G5C A12C A24G,0.03
21,C15A C23U G29U C46A,0.02
22,G17A G33A C45U C46U,0.06
23,A25C U32A A41U,0.01
24,G22U A26C C46A,0.81

row,Variant,self-cleavage
1,A11C C18U G36A,0.02
2,G5A C8G G19U,0.01
3,A12U U20G G21A C31U,0.07
4,G22A G29U C46U,0.55
5,A6U G36U A39U,0.1
6,A6G U32G G40U,0.02
7,C8G C15A U28A U38G C46U,0.02
8,C15U A24U C31A,0.02
9,G5C A11C U28C,0.01
10,C8G A25C G27A,0.01
11,A6G C15G G19U A26C G36C G44U,0.01
12,U28A G29U U43A,0.07
13,C3G U9C C13A A14G C23G U43C,0.02
14,A4C A14C C23G G33C U38G,0.02
15,A12C G22A G27A G30C U32G,0
16,C13A A14C G19A G21U C23A,0.02
17,A4U C8G U28G G35A G44U,0.01
18,G1U G30A G35U,0.03
19,C8A C18A C42U,0.17
20,G30A U32G C37A G40A U43G,0.05
21,C3U C10A A11C G44C,0.04
22,G2U A4U G33U C46U,0
23,G2U U9G G17U C18G A39U,0.1
24,C3U G5C G19A A24C,0

row,Variant,self-cleavage
1,C18A U34C C46A,0.04
2,C13U G40U C46G,0.11
3,G1A C10A A12G,0.03
4,A12U G19A C42A,0.11
5,C8U U9A U38A,0.15
6,G2C C18A G35U,0.07
7,C13A A39C C45A,0.02
8,G1C A24U U32G C46U,0.07
9,G29U C37U C46G,0.05
10,A14C G21U C31G C37G,0
11,C18A G19C G21C C23G U28A C45U,1.64
12,G1C C8A G17U C18A A25U G40U,0.04
13,C8G G21U A26C A41C,0.08
14,U9C C18G G19C U20G G44U,0.02
15,G17C G30C C45A,0.06
16,A6G C8G G17A,0.02
17,G5U G17U G29C G35C,0.03
18,A11G A25U C31A U32C C37A,0
19,C10U A24G U28G,0.15
20,G7U A16U G33C,0.24
21,C10A C31U A41C C45G,0.02
22,C10A G17C C31U U32C U38C,0.02
23,G17A C18A U34A,0.02
24,C13G G21C G33U,0.05

row,Variant,self-cleavage
1,C3A A4U G17A G19C,0.08
2,A4G A6G C15U,0.07
3,C13U C15U A26G C46A,0.05
4,A4G U20C U28A C31A,0.44
5,U9A C10U C18G G36U,0.05
6,A11C G36U C45A,0.01
7,A14G U20C A25G,0.22
8,G27A G29C C46G,1.64
9,C8U A12C C15A,0.03
10,C13A G36U G40C C42U,0.05
11,A6G G17A G33U C45A,0.03
12,C3G A11C G17C G27U,0.02
13,A16G C23A A25U,0.23
14,A16C G27A U32A,0.1
15,G7U C13U G36A,0.07
16,C10A C18U G19C A24U A26C,0.02
17,G5U G7A C13U G17C G21U A25C,0.17
18,G21U G29C U38A,0.02
19,C18G C31U C42U,0.03
20,A14G G29A G33U G36U U38A,0.03
21,C3G C31A G40U,0.01
22,A11C C15A C46A,0.06
23,G2U A14U C23G U32C C45U,0.01
24,A6G A16U U34A G40A,0.02

row,Variant,self-cleavage
1,A11C C18U G29A,0.08
2,A4C U9A G22U U34A,0.14
3,A6C A14C G19U C31A,0.02
4,G1C C8G U20A A39G,0.01
5,A6U U20A U28G,0.13
6,G5U G36C G44U,0.02
7,G7A C8U G22U G33U,0.46
8,G5U A16U A26U,0.04
9,G2A G5U A6U C15A G17A U43A C46G,0.14
10,G5C G7C G30U C45A,0.02
11,A6U G27U U38A C45A,0.23
12,A6U C8G A16U G29U,0.05
13,A6C C13U G35U,0.07
14,C8U C15G C18A,0.01
15,G2C A16U C46A,0.11
16,U20G G21U A41U C46A,0.94
17,U32G C37A A41G,0.01
18,U20G G21U C23G A24C G44A,0.22
19,U9C U20A U43C,0.01
20,G7A A12C C46G,0.02
21,U20G G33U A39C,0.02
22,A24U G29A C31A G33C,0.01
23,A14C U43C G44U,0
24,A12U A14U A25U U38A,0.12

row,Variant,self-cleavage
1,G2C G21A G27U G40A,0.01
2,C8A U38A A41U,0.25
3,G5C G7C C8U G19U G27A U38C,0.24
4,C15A G36A A41U,0.04
5,C8A A12G C18U U20A,0.05
6,C3U U20G C23U G33A C46A,0.05
7,C18A G30U C45A,0.21
8,A25U G27U C46A,0.19
9,A14G G17C G22A G29C U34C C37U,0.01
10,C3U A6U C15U A39G,0.05
11,G35C C37G U38C,0
12,U9G G36U C37U,0.03
13,C15A U20A G21C,0.15
14,A14C G35U A39U,0.05
15,C8U C13G U20C G30U C31A,0.11
16,C18U G21C C46A,2.17
17,C13U G29C G36U,0.05
18,A11G G22C C31U G33A C46A,0
19,G5U A11U U28A G35A,0.02
20,G7C A24C G30A,0.09
21,C18U C23U G33A G36U,0.06
22,U20G G30A U38C,0.03
23,G2A A11G U28C G35U,0.04
24,A6G C31U C42U,0.01

row,Variant,self-cleavage
1,A11U G35C U38C,0.04
2,A6C C18A G30A U38G,0.02
3,G30C G40U C42G U43A,0
4,C10A C23A G29C G35A U43A,0.01
5,A14C C45U C46G,0.14
6,A6C U9A U20G,0.17
7,A11U A12U G27A C31U,0.03
8,C3A A6C G19A A26U A39U C42A,0.01
9,G5A C15A G27C,0.01
10,G19A U20A C23A U28G C37U C45U,0.1
11,G7A G22A G33U,0.07
12,A26C G30C G44C,0.3
13,G17U G33A U34A,0.03
14,G2A U38G G40U,0.17
15,C8U A11C G19C G33A,0.05
16,C3A U38A U43C,0.13
17,G1U G2C A14G U20C C31U,0.03
18,C8G U9C U32A,0.01
19,G5U C8A G29C G30A,0.4
20,A14C A26G U32C G36U C42G,0.01
21,A14G G17U G35C,0.02
22,G17C A25G A26C G30A G36U,0.04
23,G19U G22C A41U,0.72
